The results in this text go back to the supplement of paper PMC9446081.

About 220 (0.56%) of roughly 39,000 compounds showed activity. The list shows a part of the results.
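Further: static incubation at 37 °C against the wild-type strain, values averaged over two biological replicates.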

The test system of the experiment is Escherichia coli K-12 BW25113. Briefly: relative growth (OD600 normalised to plate interquartile mean) (fraction); higher = less growth inhibition, active = 0.2 or less. As to conditions: 50 µM; LB; incubation time: overnight (16-24 h).
As for `CC(C)CC#Cc1cnc2c(c1)C(=O)N([C@@H](C)CO)C[C@H](C)[C@@H](CN(C)C(=O)CCN1CCCCC1)O2`, the relative growth is inactive: 0.989.

Turning to `O=C1C=CC(=O)N1`, the relative growth was active: 0.0291. With `Cc1ccc(S(=O)(=O)Nc2ccc3c(c2)C(=O)N([C@@H](C)CO)C[C@H](C)[C@H](CN(C)Cc2ccccc2)OCCCC[C@@H](C)O3)cc1`, the relative growth is inactive: 0.99. The value for `COc1ccc(CN(C)C[C@@H]2OCCCC[C@H](C)Oc3ccc(NC(=O)c4ccncc4)cc3C(=O)N([C@@H](C)CO)C[C@H]2C)cc1` was inactive: 1.04; that for `COc1cccc(NC(=O)N2C[C@@H](O)COC[C@@H]3O[C@H](CC(=O)NC4Cc5ccccc5C4)CC[C@H]32)c1` was inactive: 1; that for `C=C/C=C/C[C@@H](C)[C@@H](O)[C@H]1C(=O)N[C@@H](CC)C(=O)N(C)CC(=O)N(C)[C@@H](CC(C)C)C(=O)N[C@@H](C(C)C)C(=O)N(C)[C@@H](CC(C)C)C(=O)N[C@@H](C)C(=O)N[C@H](C)C(=O)N(C)[C@@H](CC(C)C)C(=O)N(C)[C@@H](CC(C)C)C(=O)N(C)[C@@H](C(C)C)C(=O)N1C` was inactive: 1.02. Take `C[C@@H]1CN([C@@H](C)CO)C(=O)Cc2cc(NC(=O)Cn3cnnn3)ccc2O[C@H]1CN(C)S(=O)(=O)c1ccc(Cl)cc1`: the relative growth was inactive: 1.03. For the molecule `C[C@@H]1CN([C@@H](C)CO)C(=O)c2cc(NC(=O)Cc3ccccc3)ccc2O[C@@H](C)CCCCO[C@@H]1CN(C)S(=O)(=O)c1ccc(Cl)cc1`, the relative growth was inactive: 1.04. Turning to `Cc1sc(N)nc1-c1ccccc1`, the relative growth is inactive: 0.978. On to `O=C1CCC(=O)N1c1nccs1`, for which the relative growth was inactive: 1.03.

For the molecule `CN1CCN(C(=O)C[C@H]2CC[C@@H]3[C@@H](COc4ccc(NC(=O)C5CCOCC5)cc4C(=O)N3C)O2)CC1`, the relative growth was inactive: 1.02. Take `CC(C)NC(=O)Nc1ccc2c(c1)C(=O)N([C@@H](C)CO)C[C@@H](C)[C@@H](CN(C)Cc1ccc(-c3ccccc3)cc1)O2`: the relative growth is inactive: 0.994. On to `C[C@@H]1CN([C@H](C)CO)C(=O)c2cc(NC(=O)C3CCOCC3)ccc2O[C@H]1CN(C)S(=O)(=O)c1ccc(Cl)cc1`, for which the relative growth was inactive: 1.01. On to `COc1ccc(C#Cc2ccc3c(c2)O[C@@H](CN(C)C(C)=O)[C@@H](C)CN([C@@H](C)CO)S3(=O)=O)cc1`, for which the relative growth is inactive: 1.03.

Regarding `CNC[C@H]1Oc2ccc(NC(=O)CCN3CCOCC3)cc2CC(=O)N([C@@H](C)CO)C[C@@H]1C`, the relative growth was inactive: 0.977.

Regarding `Cc1ccc(NC(=O)Cn2ccn(CCc3ccc(S(N)(=O)=O)cc3)c(=O)c2=O)cc1F`, the relative growth was inactive: 0.98. Regarding `C[C@H]1CCCCO[C@H](CN(C)C(=O)Nc2cccc3ccccc23)[C@@H](C)CN([C@@H](C)CO)C(=O)c2cc(NS(C)(=O)=O)ccc2O1`, the relative growth was inactive: 0.972. To `CCCCNC(=O)N1C[C@@H]2[C@H](CN)[C@@H]2C1` belongs inactive: 0.989; to `C[C@@H]1CN([C@@H](C)CO)C(=O)c2cc(NC(=O)C3CCCCC3)ccc2O[C@@H](C)CCCCO[C@H]1CN(C)Cc1ccc(Cl)c(Cl)c1`, inactive: 1.01.

As to `Cc1noc(C)c1NC(=O)Nc1ccc2c(c1)C(=O)N([C@@H](C)CO)C[C@@H](C)[C@@H](CN(C)Cc1ccc(Oc3ccccc3)cc1)O2`, the relative growth was inactive: 0.98. `CC(=O)Oc1cc(OC(C)=O)c2c(c1)O[C@H](c1ccc(OC(C)=O)c(OC(C)=O)c1)[C@H](OC(C)=O)C2`: the relative growth was inactive: 1.01.

As for `CS(=O)(=O)N1CCc2ccc(N)cc2C1`, the relative growth is inactive: 0.947. The value for `C[C@H](CO)N1C[C@H](C)[C@H](CN(C)C(=O)Nc2cccc3ccccc23)OCCCC[C@H](C)Oc2ccc(NC(=O)Nc3ccccc3)cc2C1=O` was inactive: 0.999; that for `Cc1noc(C)c1NC(=O)N(C)C[C@H]1Oc2ccc(NC(=O)CCCN(C)C)cc2C(=O)N([C@@H](C)CO)C[C@H]1C` was inactive: 1.02; that for `S=c1ccss1` was inactive: 0.99. Take `Cc1cn[nH]c1.Cl`: the relative growth is inactive: 1.01.

`CC(C)NC(=O)N(C)C[C@H]1Oc2ccc(NC(=O)CCC(F)(F)F)cc2C(=O)N([C@@H](C)CO)C[C@@H]1C`: the relative growth is inactive: 1.01. `COc1ccc(CN(C)C[C@@H]2OCCCC[C@H](C)Oc3ccc(NS(=O)(=O)c4c(C)noc4C)cc3C(=O)N([C@@H](C)CO)C[C@H]2C)cc1`: the relative growth is inactive: 0.987.

On to `CCS(=O)(=O)Nc1ccc2c(c1)C(=O)N(C)[C@@H]1CC[C@@H](CC(=O)N[C@@H]3CCN(Cc4ccccc4)C3)O[C@H]1CO2`, for which the relative growth was inactive: 1. As to `C[C@@H]1CN([C@H](C)CO)C(=O)c2cccc(NS(=O)(=O)c3cn(C)cn3)c2O[C@H]1CN(C)S(=O)(=O)c1cccs1`, the relative growth is inactive: 0.983. For the molecule `Cn1cc(C(=O)O)cn1`, the relative growth was inactive: 1.02. The value for `Cc1noc(C)c1S(=O)(=O)N(C)C[C@@H]1OCCCC[C@@H](C)Oc2ccc(NS(C)(=O)=O)cc2C(=O)N([C@H](C)CO)C[C@@H]1C` was inactive: 0.991.

`CCC(=O)N(C)C[C@H]1Oc2ncc(C#C[C@H](C)O)cc2C(=O)N([C@H](C)CO)C[C@@H]1C`: the relative growth was inactive: 0.983. On to `O=S1(=O)CCN(CCc2ccccc2)CC1`, for which the relative growth was inactive: 0.954.

Turning to `Cc1cc(C(=O)N2[C@@H]3CC[C@@H](C3)[C@H]2c2nc3cccc(OCc4ccc(F)cc4)c3[nH]2)n(C(C)(C)C)n1`, the relative growth is inactive: 1.03.

Regarding `C[C@@H]1CN([C@@H](C)CO)C(=O)Cc2cc(NS(C)(=O)=O)ccc2O[C@H]1CN(C)S(=O)(=O)c1ccccc1`, the relative growth is inactive: 0.997.

For `C[C@H](CO)N1C[C@H](C)[C@@H](CN(C)C(=O)NC2CCCC2)Oc2cc(Br)ccc2S1(=O)=O`, the relative growth is inactive: 1.01. The value for `C[C@@H]1CCCCO[C@H](CN(C)C)[C@@H](C)CN([C@H](C)CO)C(=O)c2cc(NC(=O)CCCN(C)C)ccc2O1` was inactive: 1.

For `CC(C)(C)OC(=O)NCc1nnc(N)[nH]1`, the relative growth is inactive: 1.04. The value for `C[C@@H]1CCCCO[C@H](CN(C)Cc2ccc(C(F)(F)F)cc2)[C@@H](C)CN([C@H](C)CO)C(=O)c2cc(NS(=O)(=O)c3cccs3)ccc2O1` was inactive: 1.03; that for `COc1ccc(S(=O)(=O)N(C)C[C@H]2Oc3ccc(NS(=O)(=O)c4ccccc4)cc3CC(=O)N([C@@H](C)CO)C[C@@H]2C)cc1` was inactive: 1.01.
